# According to the supplement of paper PMC7826260:
# The other results are listed elsewhere or left out. Viral Rep nickase domains cut single-stranded DNA in vitro for 1 h at 37 °C with 3 µM enzyme; only the middle of the 90-letter strands is printed. Values are log2 of uncut reads against the no-enzyme pool; strong cutting gives strongly negative numbers. There is no active / inactive call. The scaling is to total reads; where an enzyme cuts many sequences, the uncut ones exceed 0.
# How the values were obtained:
# Test in all cases: uncleaved DNA left, log2 of reads against the no-enzyme library (log2 ratio); higher = less cleavage (more negative = more Rep cleavage of the k-mer); sequences stand for … in CTCGTCCG…ACCGGAGA
# [1] = tested on: T1, Rep nickase domain of Muscovy duck circovirus
# T1 sequence (residues 1-111, tag not shown): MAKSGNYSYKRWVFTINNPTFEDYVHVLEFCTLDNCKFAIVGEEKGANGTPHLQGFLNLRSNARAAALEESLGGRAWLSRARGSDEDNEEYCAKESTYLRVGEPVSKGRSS
# Experimental: (§1)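 A pool of 90-nt single-stranded DNAs with seven random bases just before the constant AC of the nick site (name = the seven bases) was cut by 3 µM recombinant His6-SUMO-tagged Rep nickase domain (300 nM DNA, 50 mM HEPES pH 8.0, 50 mM NaCl, 1 mM MnCl2, 1 h, 37 °C, three replicates). Uncut DNA was amplified and sequenced.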
# [2] = tested on: T2, Rep nickase domain of banana bunchy top virus
# T2 sequence (residues 1-94, tag not shown): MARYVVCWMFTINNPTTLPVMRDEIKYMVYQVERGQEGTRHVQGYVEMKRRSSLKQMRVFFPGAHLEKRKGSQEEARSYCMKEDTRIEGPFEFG
# Experimental: as §1
# [3] = tested on: T3, Rep nickase domain of cabbage leaf curl virus
# T3 sequence (residues 1-116, tag not shown): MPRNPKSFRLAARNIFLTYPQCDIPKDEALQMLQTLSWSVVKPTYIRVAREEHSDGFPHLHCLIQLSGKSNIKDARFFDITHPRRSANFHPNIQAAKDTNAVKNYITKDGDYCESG
# Experimental: as §1
# [4] = tested on: T4, Rep nickase domain of chickpea chlorotic dwarf virus
# T4 sequence (residues 1-124, tag not shown): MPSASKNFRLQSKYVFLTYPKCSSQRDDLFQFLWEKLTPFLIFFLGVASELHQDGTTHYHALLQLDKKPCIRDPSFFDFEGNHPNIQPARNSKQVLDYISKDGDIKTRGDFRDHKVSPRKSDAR
# Experimental: as §1
# [5] = tested on: T5, Rep nickase domain of faba bean necrotic yellows virus
# T5 sequence (residues 1-98, tag not shown): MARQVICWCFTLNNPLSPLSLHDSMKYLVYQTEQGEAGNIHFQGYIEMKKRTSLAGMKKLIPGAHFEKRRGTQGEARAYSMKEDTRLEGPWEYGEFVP
# Experimental: as §1
# [6] = tested on: T6, Rep nickase domain of maize striate mosaic virus
# T6 sequence (residues 1-117, tag not shown): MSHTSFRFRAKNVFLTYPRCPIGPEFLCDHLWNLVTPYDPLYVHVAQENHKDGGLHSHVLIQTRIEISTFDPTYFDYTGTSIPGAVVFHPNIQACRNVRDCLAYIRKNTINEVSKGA
# Experimental: as §1
# [7] = tested on: T7, Rep nickase domain of porcine circovirus 2
# T7 sequence (residues 2-116, tag not shown): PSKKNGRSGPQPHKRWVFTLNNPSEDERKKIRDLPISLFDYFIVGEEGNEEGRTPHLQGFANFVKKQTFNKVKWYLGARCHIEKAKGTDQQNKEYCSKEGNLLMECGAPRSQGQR
# Experimental: as §1
# [8] = tested on: T8, Rep nickase domain of tomato golden mosaic virus
# T8 sequence (residues 1-124, tag not shown): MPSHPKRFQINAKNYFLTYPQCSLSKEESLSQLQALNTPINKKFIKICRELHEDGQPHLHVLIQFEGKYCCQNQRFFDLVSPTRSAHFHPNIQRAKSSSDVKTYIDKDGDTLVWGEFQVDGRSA
# Experimental: as §1
# [9] = tested on: T9, Rep nickase domain of tomato yellow leaf curl virus
# T9 sequence (residues 1-136, tag not shown): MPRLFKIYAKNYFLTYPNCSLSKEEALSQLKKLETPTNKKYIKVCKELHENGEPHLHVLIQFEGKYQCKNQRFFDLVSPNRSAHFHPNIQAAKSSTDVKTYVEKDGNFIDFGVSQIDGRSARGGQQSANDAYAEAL
# Experimental: as §1
# [10] = tested on: T10, Rep nickase domain of wheat dwarf virus
# T10 sequence (residues 1-137, tag not shown): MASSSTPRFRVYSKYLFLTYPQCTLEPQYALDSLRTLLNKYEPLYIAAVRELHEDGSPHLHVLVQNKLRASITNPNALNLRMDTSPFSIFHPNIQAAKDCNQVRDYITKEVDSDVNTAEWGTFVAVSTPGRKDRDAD
# Experimental: as §1
Sequence,uncleaved DNA left (log2) [1],uncleaved DNA left (log2) [2],uncleaved DNA left (log2) [3],uncleaved DNA left (log2) [4],uncleaved DNA left (log2) [5],uncleaved DNA left (log2) [6],uncleaved DNA left (log2) [7],uncleaved DNA left (log2) [8],uncleaved DNA left (log2) [9],uncleaved DNA left (log2) [10]
AGTATGA,-0.0513,0.0631,0.0803,0.437,0.0725,-0.0218,-0.0904,-0.0696,-0.0059,-0.018
CTGTGCA,0.168,0.0312,-0.386,-0.661,-0.00516,-0.997,-0.0172,-0.0183,0.156,-0.0361
AGGACAG,0.113,0.104,0.67,1.85,-0.0654,2.1,0.234,0.0949,0.104,0.171
CAGATCG,-0.0302,-0.0156,-0.855,-0.169,0.0192,-1.02,0.177,-0.0967,-0.15,-0.0859
TCCAGTA,0.0355,0.00246,0.0225,-0.69,-0.0557,-0.444,0.0118,0.18,-0.0133,-0.0125
CGCGGCT,-0.13,-0.0698,-0.184,0.105,-0.0584,0.417,-0.0687,0.0119,-0.229,-0.0116
CGATAAG,-0.0952,0.0596,-0.661,-0.196,0.055,-0.944,0.208,0.126,0.136,-0.0302
CGCTCCC,0.00298,-0.0109,0.109,0.0121,0.11,0.238,-0.0449,-0.246,-0.0261,-0.00499
AGCGATG,-0.0815,0.104,-0.0315,0.718,-0.048,1.66,0.188,-0.00766,-0.0213,0.203
TCTACTA,-0.0978,-0.147,-0.196,-2.54,0.0025,-0.32,-0.329,-0.0134,-0.00255,-0.0506
TAACGAC,-0.073,-0.146,-0.338,-0.945,-0.02,-0.51,0.089,-0.0867,-0.0866,0.0249
CTTCAGA,0.19,-0.0358,-0.111,-0.356,0.0784,-0.968,0.0789,0.139,-0.0743,0.0302
TACGTGT,-0.00146,-0.14,-0.146,-0.697,-0.0302,-0.156,-0.0588,-0.053,-0.199,-0.114
AGTGCGC,-0.0149,-0.0321,-0.762,-0.119,0.109,-0.692,0.221,-0.08,0.0765,-0.0774
GTAAGTC,0.0663,0.105,-2.2,-2.06,-0.00545,0.953,0.131,-0.0997,0.124,-0.295
GGCGATG,0.00627,-0.171,0.0276,0.492,-0.127,1.64,0.0953,-0.0275,-0.135,-0.078
CTACGGA,0.041,0.0521,0.0492,-0.0279,-0.0642,-0.173,0.0563,0.0541,-0.124,-0.0747
GTTCCCG,-1.05,-0.000474,-0.283,-0.56,-0.0574,-0.62,-1.91,0.0483,-0.0408,0.00851
TTCGGAG,0.142,0.142,-0.0885,-0.408,-0.0123,-0.907,0.167,0.053,0.158,0.043
ACATATG,0.0103,0.0578,-0.638,-0.312,0.0679,-0.82,0.157,0.164,0.0924,-0.0726
TAGGGTT,0.0345,-0.0588,-0.0656,0.148,-0.0431,1.59,-1.6,0.0301,-0.0713,-0.0776
CCGTAAC,0.0974,0.0157,-0.0812,-1.19,0.0735,-0.45,0.0946,0.134,0.0137,-0.0696
AAGACTT,0.0447,-0.114,0.103,0.42,-0.0702,1.68,-3.07,0.176,0.179,0.154
CTGATAT,0.0108,-0.0283,0.119,-0.223,-0.0125,-0.205,0.0361,0.0152,-0.0195,0.0934
TTAATAA,-0.197,-0.0829,0.0473,-0.189,-0.148,-0.234,-0.116,-0.0449,-0.105,-0.0768
CAGCGCT,-0.173,-0.249,-0.558,-0.979,-0.117,-0.621,-1.55,-0.163,-0.214,-0.336
GCGGCTC,-0.0372,0.00985,0.23,0.73,-0.158,1.55,-0.0503,-0.0102,-0.0571,0.0719
TGGCAAT,0.034,-0.00848,0.597,1.41,0.0133,1.68,0.156,-0.0624,-0.0273,0.188
GTGCACA,0.0135,0.191,0.43,1.03,0.063,1.72,0.181,0.112,0.155,0.169
GGAGCTG,0.0335,0.0554,0.284,1.34,0.0266,1.69,0.154,0.208,-0.114,0.0968
